Assay results reported in article PMC12136788.
The other results are listed elsewhere or left out.

T1: UNK ZnF1-3 (human, UniProt Q9C0B0 31-174)
T1 sequence: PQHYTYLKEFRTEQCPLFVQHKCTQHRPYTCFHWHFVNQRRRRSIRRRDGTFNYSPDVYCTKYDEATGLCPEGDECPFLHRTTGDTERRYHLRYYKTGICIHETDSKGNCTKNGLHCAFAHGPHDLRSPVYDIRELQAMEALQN

B1: chr18:48442549:48442550:+_ENSG00000082212_ENST00000321341|hu_hu|FALSE|FALSE (ssRNA)
RNA: GGGAGUUCUACAGUCCGACGAUCAAUUGAUCUAACAUGACCUCUGUCUGAGAUCGAAAUAAAUAAUCCCUUAGGUCUUCUAAAGAUGUGUCCAUACUGGGAGCAGGCAAGACCAACCGUCGGUGUAUAUACAAUUGGCAUUAACAACAGAGGAUUGAGCAUCA
B2: chr9:59598888:59598889:+_ENSMUSG00000039585_ENSMUST00000128341|mus_mus|FALSE|FALSE (ssRNA)
RNA: GGGAGUUCUACAGUCCGACGAUCGGACUGGGCAGGCACAUCCCCCGCCGCACCCCGCCCAGAGAGCACGCGUUGGAAGCUAAACCGCGGUCCCUGCUUUUGCCCGGGGACCGGUAUCUCCGCCGCAGUCCCUCCCCGUCCUGCCAACAGAGGAUUGAGCAUCA
B3: chr16:94664741:94664742:+_ENSMUSG00000040785_ENSMUST00000117648|mus_hu|mus_mus_mus_hu_False|1_8 (ssRNA)
RNA: GGGAGUUCUACAGUCCGACGAUCUGGUACUGAUCUUGGUAGCUGAUAUUCAGGAGAAAGGCUGGCCAAGGGUGUAUAUAUGCUGGUGUACUGGGGCAAACCUGGUAACACGUUUAUGUAUGCUGGCCGCUGGGUGAUGCCAAACAACAGAGGAUUGAGCAUCA
B4: 43876696_43876816_1016_3pUTR_ENSG00000149084_ENST00000278353|human|control|control (ssRNA)
RNA: GGGAGUUCUACAGUCCGACGAUCCAAUGCAGUUAUCAAUGCUUAGUUCUUCUUGGUUUUCUUCAGAUAGUGAGCCCGUGUAGACUUGUUCAUAUUCAUGACUAUUUUCAAAUAAAUCCAAGAAGGCAGGUUUGAGAUUAUCGACAACAGAGGAUUGAGCAUCA
B5: 77745829_77755158_922_CDS_ENSG00000085365_ENST00000538629|human|control|control (ssRNA)
RNA: GGGAGUUCUACAGUCCGACGAUCUGCUGAUGCUGUGAAAAGUGCUGCUAUGAUUAUCAUCAUGAUUCCAACAGGAAUAUUUUGGUUGAGACCAGUAAGGGAUGAAAUCCAACCACCAAUGCCCCAGUUAUGAAAUCCUGCAGCCAACAGAGGAUUGAGCAUCA
B6: chr10:33190432:33190433:-_ENSG00000150093_ENST00000302278|hu_mus|hu_hu_hu_mus_True|8_28 (ssRNA)
RNA: GGGAGUUCUACAGUCCGACGAUCUACAUUUUCCAAACCUGCAUGUGAAUAAAACCCUGGCCACAGAGCCCCAAAACUACCCUACUGUGACUAAGAUGCUGCUGCUGUUGCAUUCAGGUUGCAAAAUUUUGCACGGGAGGAUUCCAACAGAGGAUUGAGCAUCA
B7: chr18:16782857:16782858:-_ENSMUSG00000024304_ENSMUST00000115850|mus_mus|FALSE|FALSE (ssRNA)
RNA: GGGAGUUCUACAGUCCGACGAUCGGGGGGAUUCCCUGAAUCUGUGAUAAUGAUGGGAACUUCAUAGAUACCAGCUUCCAAAAAUUUUAUCUUUAAAUUGAGCUGAGCAAAAUCACCAUUAAGCCGGUUGAUGGUCCAGUUUCUCAACAGAGGAUUGAGCAUCA
B8: chr7:117217587:117217588:+_ENSMUSG00000061079_ENSMUST00000084727|mus_mus|FALSE|FALSE (ssRNA)
RNA: GGGAGUUCUACAGUCCGACGAUCGAUAUAAGCUGUUGUCCCAUCUUCUAACUGAACGGCCUGAAGUGAGCUCUGGUCAUAACUGUCUUUCGAGGUGUGGUGGAUAAAUGCAGUGGUCCCGUCUUCUAGCUGCACUGCUUGCCCCAACAGAGGAUUGAGCAUCA
B9: chr12:48362563:48362564:+_ENSG00000134291_ENST00000256686|hu_hu|hu_hu_hu_mus_False|68_88 (ssRNA)
RNA: GGGAGUUCUACAGUCCGACGAUCUCCGUCAAGCCCUUCGAUAGACCCAUAGACUCUAAACUGUAAUAAUUCUAACUGGGGAAGGAAAAGAAACGCCAAAAACUUUCCAAAAAGCGGGGGUGGGGUGAGGCGGGAGGGGGAGGUCAACAGAGGAUUGAGCAUCA
B10: 96090537_96091411_2932_3pUTR_ENSG00000182168_ENST00000453304|human|control|control (ssRNA)
RNA: GGGAGUUCUACAGUCCGACGAUCGUAAUUCAAGUACCUGUCCAGGUUCAGCUUAUGGGCCAGCAUCCUCCAGUCAUGGCCUCUCGUCUGGGGGGCAUCCAGGCUGCUACAGAGCUUCUGCCGGAUAGGGAGAGGGAUGCUGAACAACAGAGGAUUGAGCAUCA
B11: chr2:216981417:216981418:+_ENSG00000079246_ENST00000392132|hu_hu|hu_hu_hu_mus_True|38_68 (ssRNA)
RNA: GGGAGUUCUACAGUCCGACGAUCCUGAUACUGGUCCUUGCCAGCAAGGGCAUUAUCAGUGCCAUCUGUACCAAACAGGACUAACGCAAUCUCAUCUUUGUUCUCAGAAAAUACCUGUCGUUGGACAAACAUAGUCAUCACUUUCAACAGAGGAUUGAGCAUCA
B12: chr2:46810187:46810188:+_ENSG00000119729_ENST00000238738|hu_hu|motif|central (ssRNA)
RNA: GGGAGUUCUACAGUCCGACGAUCAAUGUGUAAUAGUUUACUGUUGUAAUUCGUUUAUACCAUGUGUUGGACAACUCAGCGGAUAUGUUAAUUGAUUUAUACAAUUCCUUUCAAUUUUAUCUAAAAAUAAGCAGACCAAAAUUACAACAGAGGAUUGAGCAUCA
B13: chr7:150721943:150721944:-_ENSMUSG00000059119_ENSMUST00000072727|mus_mus|motif|central (ssRNA)
RNA: GGGAGUUCUACAGUCCGACGAUCCACCUGGAGCUGCUUCAGGGCAUUAAUUCUUCUUUUGACAGCUUUAGGUAAAGUUUCGGUGUAACUAGAAGGAGUGUGAGAGACGUUGUCAAGACGUUCCUGCAAAGCUGCCAGCACUUGCAACAGAGGAUUGAGCAUCA
B14: chr6:17615347:17615348:+_ENSMUSG00000015733_ENSMUST00000015877|mus_hu|motif|central (ssRNA)
RNA: GGGAGUUCUACAGUCCGACGAUCUCCGGUCAUGCAAUGUUCAUCUUAUGCAUUCUGCAUCUCUUUGCCAAUCUUGUAGCGGAGGAUCUUGUUCCAAUCAAUCUUAGUGCGUGUAACUGGCAACUGUCGACGUAAGGCUUUGAACAACAGAGGAUUGAGCAUCA
B15: chr12:100720429:100720430:+_ENSG00000136021_ENST00000360820|hu_mus|FALSE|FALSE (ssRNA)
RNA: GGGAGUUCUACAGUCCGACGAUCGAAGGGUAGGAUAUCAUCAAGCACAAACCACUUAUCCAGGUACUCCAGGAUCUUCCCUAAGCACACUAAUGAAUUCACACGGACAGCAAGGGAAGACGUUUGUAAACAGGCAUUUUUAAUCAACAGAGGAUUGAGCAUCA
B16: 148756940_148757411_2825_CDS_ENSG00000071794_ENST00000310053|human|control|control (ssRNA)
RNA: GGGAGUUCUACAGUCCGACGAUCAAAACACUGAAUUGAUUCAACUCUUUUCUUUUGGGCCAUGGAACCAUCCAAACGAGUAAACACAAAUCCAGAGGCUUUAAGUGGUAUUUCUAUUAAAGACAGGAAUGUUGUAAACUGAGACAACAGAGGAUUGAGCAUCA
B17: 21461063_21466172_6558_CDS_ENSMUSG00000042453_ENSMUST00000161356|mouse|control|control (ssRNA)
RNA: GGGAGUUCUACAGUCCGACGAUCCCAACGGAAACGCACAGAUCCACAAAGGUGCAGCUUUCCGAAGUGCACGACCUCCCGCCGCCAGCCCUGGGUGGUCCCCGCGUAGUAGGUGCUGCUCGGGUGAUGCUCAGUGGAGCAUAACAACAGAGGAUUGAGCAUCA
B18: 40762976_40763096_572_CDS_ENSMUSG00000047446_ENSMUST00000101472|mouse|control|control (ssRNA)
RNA: GGGAGUUCUACAGUCCGACGAUCAGUUAUUUUAUGAAGUUCAGUUUUGGCUUCUUCCAUUCUCUCAACAUCGACAGAGUCCACCACAAACACAAUACCAUCUGUGCAUCGGGUGUAUGACUUCCACAGUGGUCUUAACUUCUCCAACAGAGGAUUGAGCAUCA
B19: chr5:145858064:145858065:+_ENSG00000113649_ENST00000394421|hu_hu|FALSE|FALSE (ssRNA)
RNA: GGGAGUUCUACAGUCCGACGAUCCCACAUAGAAAGACGAGUGGUGGGAUUAUAAAAGAAGACCCGCUCAUCACCAGUCCAAACGACACACCAUGGAGUACCAGGAAUAGGAGCAGUAGCAACUGGCUUUGCCUUCUGGGCAGCCAACAGAGGAUUGAGCAUCA
B20: 27720159_27733746_472_CDS_ENSMUSG00000024213_ENSMUST00000025050|mouse|control|control (ssRNA)
RNA: GGGAGUUCUACAGUCCGACGAUCAAAAAUUCCAACUAGUCUUCCCAGUGUCCCUUUCACUCCAGCCUCCUCACACACUUCCCGGACAGCUGCCACACUUGGCUCCUCCUCAGGCUCCAUGCCUCCUCCGGGGACAAUCCAUCGCAACAGAGGAUUGAGCAUCA
B21: 113923486_113924314_1533_CDS_ENSG00000119927_ENST00000348367|human|control|control (ssRNA)
RNA: GGGAGUUCUACAGUCCGACGAUCAAUCAACCUCCUUCGUAGGGAUUCAUCUGUUGCAUUUCUGGACUCAUUAAUGGACGUGUCUCUACCUUCAUCAGCAGCAUCACUGGGUCUUGAAGGAAGUAUAGCUGGUAACAACGCUUGCAACAGAGGAUUGAGCAUCA
B22: chr2:60072322:60072323:+_ENSMUSG00000026977_ENSMUST00000102748|mus_hu|motif|central (ssRNA)
RNA: GGGAGUUCUACAGUCCGACGAUCUGAUCUUGUAUUCAAGGAAUCCUGACUAGAUCUUCGUGAAAAAAAAGUAGAUGACAUGCGGGAAGCUAUGCGUGACAGCAAUCUCCUCGUUGUCCGCCUACCUUCAUUGUCAGAAGAUUCCAACAGAGGAUUGAGCAUCA

Each binder was assayed against T1, UNK ZnF1-3 (assay: nsRBNS (natural sequence RNA bind-n-seq); RBNS binding buffer (assumed for nsRBNS): 25 mM Tris pH 7.5, 150 mM KCl, 3 mM MgCl2, 0.01% Triton X-100, 500 ug/ml BSA, 20 U/ml SUPERase-In, 4 C; UNK is unkempt and MSI1 is Musashi-1; names of the RNAs are library labels; protein concentration not given here; high values mean tight binding).
In the case of B1, the binding signal is reported as 1.07 enrichment R. With B2 the binding signal was 1.08 enrichment R. B3 was tested, and the binding signal was 1.08 enrichment R. In the case of B4, the binding signal is reported as 0.804 enrichment R. B5 gave a binding signal of 1.49 enrichment R. Work on B6 yielded a binding signal of 0.991 enrichment R. Binder B7 has a binding signal of 1.49 enrichment R. Binder B8 has a binding signal of 0.844 enrichment R. For B9, the binding signal was 2.65 enrichment R. With B10 the binding signal was 0.744 enrichment R. B11 was tested, and the binding signal was 0.629 enrichment R. B12 gave a binding signal of 1.89 enrichment R. B13 gave a binding signal of 1.03 enrichment R. Work on B14 yielded a binding signal of 0.716 enrichment R. In the case of B15, the binding signal is reported as 1.19 enrichment R. Binder B16 has a binding signal of 1.29 enrichment R. Binder B17 has a binding signal of 0.965 enrichment R. Binder B18 has a binding signal of 0.602 enrichment R. For B19, the binding signal was 1.43 enrichment R. For B20, the binding signal was 1.01 enrichment R. With B21 the binding signal was 1 enrichment R. With B22 the binding signal was 0.334 enrichment R.
